According to patent publication US10532977B2, “Small molecule inhibitors of protein tyrosine phosphatases and uses thereof” (Indiana University Research and Technology Corporation, priority 2015, dated 2020):

Test system: panel of PTPs
Conditions: for selectivity for SHP2 against all PTPs examined: cefsulodin: with the sole exception of SHP1

SMILES | selectivity for SHP2 against all PTPs examined | further results
Cc1c(Br)cc(NC(=O)CS(=O)(=O)O)cc1Br |  | activity against mPTPB or a panel of human PTPs below 3 μM: no significant activity
NC(=O)c1cc[n+](CC2=C(C(=O)O)N3C(=O)[C@@H](NC(=O)[C@@H](c4ccccc4)S(=O)(=O)[O-])[C@H]3SC2)cc1 [Cefsulodin] | greater than 10 fold | 
O=C(Nc1ccc(I)cc1)C(=O)Nc1ccc(NC(=O)C(c2ccccc2)S(=O)(=O)O)cc1 (centres unmarked) [Compound 2, 2-((4-(2-((4-iodophenyl)amino)-2-oxoacetamido)phenyl)amino)-2-oxo-1-phenylethanesulfonic acid] | at least 4 fold | 
O=C(Nc1ccc(NC(=O)C(c2ccccc2)S(=O)(=O)O)cc1)C(=O)Nc1cc(-c2ccc(Br)cc2)n[nH]1 (centres unmarked) [Compound 4, 2-((4-(2-((3-(4-bromophenyl)-1H-pyrazol-5-yl)amino)-2-oxoacetamido)phenyl)amino)-2-oxo-1-phenylethanesulfonic acid] | ≥ 8 fold | 
O=C(Nc1nnc(-c2ccccc2)s1)C(c1ccccc1)S(=O)(=O)O (centres unmarked) [Compound L319M73-2] |  | selectivity for Laforin over other PTPs (ratio of IC50): 100 fold
